# Test results reported in the supplement of paper PMC8728848.
# The other results are listed elsewhere or left out.
# Tests used:
# Assay in all cases: glycan array binding signal (z-score within array); higher = stronger binding
# Settings in all cases: glycan notation: IUPAC condensed, linker removed
# [1] = target: Neu5Ac(a2-3)Gal(b1-3)GlcNAc6S
# In short: (§1)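 Glycan array binding is given as a within-array Z-score, which can be read as non-binding when negative. The arrays, 3228 of them, came from the Consortium for Functional Glycomics database and were retained only where the protein sequence was available. Z-scores were averaged across arrays of the same protein sequence at different concentrations or buffers and across linkers.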
# [2] = target: Neu5Ac(a2-3)Gal(b1-3)[Fuc(a1-4)]GlcNAc
# In short: as §1
# [3] = target: Neu5Ac(a2-3)Gal(b1-3)[Fuc(a1-4)]GlcNAc(b1-3)Gal(b1-3)[Fuc(a1-4)]GlcNAc
# In short: as §1
# [4] = target: Neu5Ac(a2-3)Gal(b1-3)[Fuc(a1-4)]GlcNAc(b1-3)Gal(b1-4)[Fuc(a1-3)]GlcNAc
# In short: as §1
# [5] = target: Neu5Ac(a2-3)Gal(b1-3)[GlcNAc(b1-6)]GalNAc
# In short: as §1
# [6] = target: Neu5Ac(a2-3)Gal(b1-3)[Neu5Ac(a2-6)]GalNAc
# In short: as §1
# [7] = target: Neu5Ac(a2-3)Gal(b1-3)[Neu5Ac(a2-6)]GlcNAc(b1-3)[Fuc(a1-3)[Gal(b1-4)]GlcNAc(b1-6)]Gal(b1-4)Glc
# In short: as §1
# [8] = target: Neu5Ac(a2-3)Gal(b1-3)]Neu5Ac(a2-3)Gal(b1-4)]GlcNAc
# In short: as §1
# Neu5Ac(a2-3)Gal(b1-4)Glc = target: Neu5Ac(a2-3)Gal(b1-4)Glc
# In short: as §1
# [9] = target: Neu5Ac(a2-3)Gal(b1-4)GlcNAc
# In short: as §1
# [10] = target: Neu5Ac(a2-3)Gal(b1-4)GlcNAc(b1-2)Man
# In short: as §1
# [11] = target: Neu5Ac(a2-3)Gal(b1-4)GlcNAc(b1-2)Man(a1-3)[GlcNAc(b1-4)][Neu5Ac(a2-3)Gal(b1-4)GlcNAc(b1-2)Man(a1-6)]Man(b1-4)GlcNAc(b1-4)GlcNAc
# In short: as §1
# [12] = target: Neu5Ac(a2-3)Gal(b1-4)GlcNAc(b1-2)Man(a1-3)[Neu5Ac(a2-3)Gal(b1-4)GlcNAc(b1-2)Man(a1-6)]Man(b1-4)GlcNAc(b1-4)GlcNAc
# In short: as §1
# [13] = target: Neu5Ac(a2-3)Gal(b1-4)GlcNAc(b1-2)Man(a1-3)[Neu5Ac(a2-3)Gal(b1-4)GlcNAc(b1-2)Man(a1-6)]Man(b1-4)GlcNAc(b1-4)[Fuc(a1-6)]GlcNAc
# In short: as §1
# [14] = target: Neu5Ac(a2-3)Gal(b1-4)GlcNAc(b1-2)Man(a1-3)[Neu5Ac(a2-6)Gal(b1-4)GlcNAc(b1-2)Man(a1-6)]Man(b1-4)GlcNAc(b1-4)GlcNAc
# In short: as §1
# [15] = target: Neu5Ac(a2-3)Gal(b1-4)GlcNAc(b1-2)[Neu5Ac(a2-3)Gal(b1-4)GlcNAc(b1-4)]Man(a1-3)[GlcNAc(b1-4)][Neu5Ac(a2-3)Gal(b1-4)GlcNAc(b1-2)[Neu5Ac(a2-3)Gal(b1-4)GlcNAc(b1-6)]Man(a1-6)]Man(b1-4)GlcNAc(b1-4)GlcNAc
# In short: as §1
# [16] = target: Neu5Ac(a2-3)Gal(b1-4)GlcNAc(b1-2)[Neu5Ac(a2-3)Gal(b1-4)GlcNAc(b1-4)]Man(a1-3)[GlcNAc(b1-4)][Neu5Ac(a2-3)Gal(b1-4)GlcNAc(b1-4)Man(a1-6)]Man(b1-4)GlcNAc(b1-4)GlcNAc
# In short: as §1
# [17] = target: Neu5Ac(a2-3)Gal(b1-4)GlcNAc(b1-2)[Neu5Ac(a2-3)Gal(b1-4)GlcNAc(b1-6)]Man(a1-6)[Neu5Ac(a2-3)Gal(b1-4)GlcNAc(b1-2)Man(a1-3)]Man(b1-4)GlcNAc(b1-4)GlcNAc
# In short: as §1
# [18] = target: Neu5Ac(a2-3)Gal(b1-4)GlcNAc(b1-2)[Neu5Ac(a2-3)Gal(b1-4)GlcNAc(b1-6)]Man(a1-6)[Neu5Ac(a2-3)Gal(b1-4)GlcNAc(b1-2)Man(a1-3)][GlcNAc(b1-4)]Man(b1-4)GlcNAc(b1-4)GlcNAc
# In short: as §1
# [19] = target: Neu5Ac(a2-3)Gal(b1-4)GlcNAc(b1-3)Gal
# In short: as §1
# [20] = target: Neu5Ac(a2-3)Gal(b1-4)GlcNAc(b1-3)Gal(b1-3)GlcNAc
# In short: as §1
# [21] = target: Neu5Ac(a2-3)Gal(b1-4)GlcNAc(b1-3)Gal(b1-4)GlcNAc
# In short: as §1
# [22] = target: Neu5Ac(a2-3)Gal(b1-4)GlcNAc(b1-3)Gal(b1-4)GlcNAc(b1-2)Man(a1-3)[Neu5Ac(a2-3)Gal(b1-4)GlcNAc(b1-3)Gal(b1-4)GlcNAc(b1-2)Man(a1-6)]Man(b1-4)GlcNAc(b1-4)GlcNAc
# In short: as §1
# [23] = target: Neu5Ac(a2-3)Gal(b1-4)GlcNAc(b1-3)Gal(b1-4)GlcNAc(b1-3)Gal(b1-4)GlcNAc
# In short: as §1
# [24] = target: Neu5Ac(a2-3)Gal(b1-4)GlcNAc(b1-3)Gal(b1-4)GlcNAc(b1-3)Gal(b1-4)GlcNAc(b1-2)Man(a1-3)[Neu5Ac(a2-3)Gal(b1-4)GlcNAc(b1-3)Gal(b1-4)GlcNAc(b1-3)Gal(b1-4)GlcNAc(b1-2)Man(a1-6)]GalNAc
# In short: as §1
# [25] = target: Neu5Ac(a2-3)Gal(b1-4)GlcNAc(b1-3)Gal(b1-4)GlcNAc(b1-3)GalNAc
# In short: as §1
# [26] = target: Neu5Ac(a2-3)Gal(b1-4)GlcNAc(b1-3)Gal(b1-4)GlcNAc(b1-3)[Neu5Ac(a2-3)Gal(b1-4)GlcNAc(b1-3)Gal(b1-4)GlcNAc(b1-6)]GalNAc
# In short: as §1
# [27] = target: Neu5Ac(a2-3)Gal(b1-4)GlcNAc(b1-3)Gal(b1-4)GlcNAc(b1-6)[Gal(b1-3)]GalNAc
# In short: as §1
# [28] = target: Neu5Ac(a2-3)Gal(b1-4)GlcNAc(b1-3)Gal(b1-4)[Fuc(a1-3)]GlcNAc
# In short: as §1
# [29] = target: Neu5Ac(a2-3)Gal(b1-4)GlcNAc(b1-3)GalNAc
# In short: as §1
# [30] = target: Neu5Ac(a2-3)Gal(b1-4)GlcNAc(b1-3)[Neu5Ac(a2-3)Gal(b1-4)GlcNAc(b1-6)]GalNAc
# In short: as §1
# [31] = target: Neu5Ac(a2-3)Gal(b1-4)GlcNAc(b1-6)GalNAc
# In short: as §1
# [32] = target: Neu5Ac(a2-3)Gal(b1-4)GlcNAc(b1-6)[Gal(b1-3)]GalNAc
# In short: as §1
# [33] = target: Neu5Ac(a2-3)Gal(b1-4)GlcNAc(b1-6)[Neu5Ac(a2-3)Gal(b1-3)]GalNAc
# In short: as §1
# [34] = target: Neu5Ac(a2-3)Gal(b1-4)GlcNAc6S
# In short: as §1
# [35] = target: Neu5Ac(a2-3)Gal(b1-4)[Fuc(a1-3)]GlcNAc
# In short: as §1
# [36] = target: Neu5Ac(a2-3)Gal(b1-4)[Fuc(a1-3)]GlcNAc(b1-2)Man
# In short: as §1
# [37] = target: Neu5Ac(a2-3)Gal(b1-4)[Fuc(a1-3)]GlcNAc(b1-3)Gal
# In short: as §1
# [38] = target: Neu5Ac(a2-3)Gal(b1-4)[Fuc(a1-3)]GlcNAc(b1-3)Gal(b1-4)GlcNAc
# In short: as §1
# [39] = target: Neu5Ac(a2-3)Gal(b1-4)[Fuc(a1-3)]GlcNAc(b1-3)Gal(b1-4)[Fuc(a1-3)]GlcNAc(b1-3)Gal(b1-4)[Fuc(a1-3)]GlcNAc
# In short: as §1
# [40] = target: Neu5Ac(a2-3)Gal(b1-4)[Fuc(a1-3)]GlcNAc(b1-3)GalNAc
# In short: as §1
# [41] = target: Neu5Ac(a2-3)Gal(b1-4)[Fuc(a1-3)]GlcNAc(b1-6)[Gal(b1-3)]GalNAc
# In short: as §1
# [42] = target: Neu5Ac(a2-3)Gal(b1-4)[Fuc(a1-3)]GlcNAc(b1-6)[Neu5Ac(a2-3)Gal(b1-3)]GalNAc
# In short: as §1
# [43] = target: Neu5Ac(a2-3)Gal(b1-4)[Fuc(a1-3)]GlcNAc6S
# In short: as §1
# [44] = target: Neu5Ac(a2-3)Gal6S(b1-4)GlcNAc
# In short: as §1
binder,measurement,setting,value
"AT1G73650(15) (Arabidopsis thaliana), F4HRY1 (protein) MGTVLDSHFLALTAIVTVIYQFIFFVITALFKFDQVTDFAGSTNFVILAVLTLVLKASWHFRQIVLTLLVVVWGLRLGIFLLMETRILQWGEDRRFDEQRGNIVRLIIFWTLQAVWVWTVSLPLTLVNASDGGGSLKPADVIGWTMETWVFGFLIEAAADQQKLSFKNSPENRGKWCDVGVWKYSRHPNYFGEMETLLWWGIFVAASPVLEGAEYLVIFGPLFLTLLLLFVSGIPLLEASADKKHGNSGAYRSYKKTTSPLILFPRGVYGNLPGWFKTVFLFEFPFYSRNLPQEGRLQNSKEKEVKDD",glycan array binding signal (z-score),[1],-0.38
same,glycan array binding signal (z-score),[2],-0.496
same,glycan array binding signal (z-score),[3],-0.36
same,glycan array binding signal (z-score),[4],-0.002
same,glycan array binding signal (z-score),[5],-0.402
same,glycan array binding signal (z-score),[6],-0.318
same,glycan array binding signal (z-score),[7],-0.293
same,glycan array binding signal (z-score),[8],1.11
same,glycan array binding signal (z-score),Neu5Ac(a2-3)Gal(b1-4)Glc,-0.34
same,glycan array binding signal (z-score),[9],-0.423
same,glycan array binding signal (z-score),[10],-0.321
same,glycan array binding signal (z-score),[11],-0.49
same,glycan array binding signal (z-score),[12],-0.544
same,glycan array binding signal (z-score),[13],-0.367
same,glycan array binding signal (z-score),[14],-0.511
same,glycan array binding signal (z-score),[15],-0.555
same,glycan array binding signal (z-score),[16],-0.619
same,glycan array binding signal (z-score),[17],0.309
same,glycan array binding signal (z-score),[18],-0.226
same,glycan array binding signal (z-score),[19],-0.61
same,glycan array binding signal (z-score),[20],-0.316
same,glycan array binding signal (z-score),[21],-0.62
same,glycan array binding signal (z-score),[22],-0.673
same,glycan array binding signal (z-score),[23],-0.604
same,glycan array binding signal (z-score),[24],-0.387
same,glycan array binding signal (z-score),[25],0.878
same,glycan array binding signal (z-score),[26],0.537
same,glycan array binding signal (z-score),[27],-0.272
same,glycan array binding signal (z-score),[28],1.23
same,glycan array binding signal (z-score),[29],-0.553
same,glycan array binding signal (z-score),[30],-0.068
same,glycan array binding signal (z-score),[31],-0.594
same,glycan array binding signal (z-score),[32],0.394
same,glycan array binding signal (z-score),[33],-0.574
same,glycan array binding signal (z-score),[34],-0.562
same,glycan array binding signal (z-score),[35],-0.452
same,glycan array binding signal (z-score),[36],-0.54
same,glycan array binding signal (z-score),[37],-0.714
same,glycan array binding signal (z-score),[38],-0.13
same,glycan array binding signal (z-score),[39],-0.574
same,glycan array binding signal (z-score),[40],1.32
same,glycan array binding signal (z-score),[41],-0.102
same,glycan array binding signal (z-score),[42],-0.441
same,glycan array binding signal (z-score),[43],-0.364
same,glycan array binding signal (z-score),[44],-0.031
